# Out of some 420,000 compounds screened, about 50,000 (12%) were called active. Inconclusive results, whose numbers are uncertain, are shown with a selection of clear calls. The call rests on the fitted dose curve; in most records, active means well fitted inhibition curve with a large enough effect; inconclusive means small, poorly fitted or top-dose-only effect; inactive means flat fitted curve, though single readings scatter. Potencies of inconclusive entries are left out as doubtful fits.
# Assay: qHTS for Inhibitors of human tyrosyl-DNA phosphodiesterase 1 (TDP1): qHTS in cells in presence of CPT; further: nearly all actives have a fitted effect of over 55% in size
# Details: chicken DT40 Tdp1-/-;hTDP1 cells + 20 nM CPT, ATP luminescence, 48 h; activity change, negative = growth inhibition: at 46.2 µM (top of the series)
# How it was run: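 Chicken DT40 Tdp1-/- cells stably complemented with human TDP1 were seeded at 400 cells/well in medium containing 20 nM camptothecin, exposed to pin-transferred compounds, and grown at 37 °C for at least 48 hr. Viability was read as ATP luminescence.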
# On the % scale 0 is the no-effect control and ±100 the full control effect; potency means the concentration at half of the fitted maximal effect; tags describe the fitted curve by direction and shape.
Compound,Potency,"activity change, negative = growth inhibition"
Cc1ccc(Nc2ncnc3c2nc2n3CCCC2)cc1F,"inconclusive [inhibitor, single point]",
Cc1nc2nc[nH]n2c(=O)c1NS(=O)(=O)c1ccc(Br)cc1,,inactive: 6.08%
COc1ccc(C(=O)NCCSC2CCCCC2)cc1,,inactive: -14.7%
COc1ccc(-c2csc(NC(=O)c3ccc(S(=O)(=O)N4CCc5ccccc5C4)cc3)n2)cc1,,inactive: -13%
CC1CCCC(C)N1C(=O)CSc1nc2ccccc2s1 (stereo not drawn),"inconclusive [inhibitor, single point]",
CCOc1ncccc1C(=O)NCC1COc2ccccc2O1 (stereo not drawn),"inconclusive [inhibitor, partial curve]",
CCOc1ccc(N(C)C(=O)CCc2nnc3ccc(NCc4ccco4)nn23)cc1,"inconclusive [inhibitor, partial curve]",
CCOc1ccc(N2C(=O)CC(N3CCN(c4ccc(C(=O)c5ccncc5)cc4)CC3)C2=O)cc1 (stereo not drawn),"inconclusive [inhibitor, single point]",
Cn1ccc2c(-c3ccc4[nH]ccc4c3)cc3c(c21)C1CCC3O1 (stereo not drawn),"inconclusive [inhibitor, single point]",
Cn1c(=O)[nH]c(N)c(Br)c1=O,,inactive: -29.7%
CN1CCN(c2ccccc2NC(=O)c2ccc([N+](=O)[O-])o2)CC1,active: 7.31 µM,
CC(=O)N/C(=C\c1ccc(F)cc1)C(=O)N(C)C,,inactive: -8.61%
COc1ccc2c(ccc[n+]2CC(=O)c2ccccc2)c1,"inconclusive [inhibitor, single point]",
O=C(Nc1nc(-c2ccccc2Cl)cs1)c1cccnc1,"inconclusive [inhibitor, partial curve]",
CCOC(=O)C1CCN(CCC(=O)Nc2ccc(C)cc2)CC1,"inconclusive [inhibitor, full curve, poor fit]",
COc1ccc(/C=C/C(=O)c2cc(Cl)cc(Cl)c2O)c(OC)c1,,inactive: -10.1%
Cc1ccc2c(c1)C(c1ccncc1)=NNC(c1ccccc1)=N2,,inactive: -11.7%
CC1=C(c2ccc(Cl)cc2)S(=O)(=O)N=C1N1CCN(c2cc(C)ccc2C)CC1,"inconclusive [inhibitor, single point]",
O=C(CNC(=O)c1ccccc1F)NNC(=O)c1ccccc1O,,inactive: 14.7%
CCOC(=O)C1(CCOc2ccccc2)CCN(Cc2ccc(C)o2)CC1,"inconclusive [inhibitor, single point]",
CC1(C)Cc2c(oc3ncn4ncnc4c23)CO1,,inactive: 3.21%
Cc1ccc(S(=O)(=O)N(C)c2ccc(C(=O)NCc3ccccn3)cc2)cc1,"inconclusive [inhibitor, single point]",
CN1CCN(c2oc(-c3ccccc3)nc2S(=O)(=O)c2ccc(Br)cc2)CC1,active: 16.4 µM,
CCOC(=O)N1CCC(N(CCN(C)C)C(=S)Nc2ccc(Oc3ccccc3)cc2)CC1,,inactive: -8.94%

Compound,Potency,"activity change, negative = growth inhibition"
COc1cccc(NC(=O)CN(C)CC(=O)Nc2ccc3c(c2)OCO3)c1,,inactive: 9.83%
COC(=O)Cn1ncc2c3ccccc3n(Cc3ccccc3)c2c1=O,"inconclusive [inhibitor, single point]",
COCC(=O)N1CCC(Oc2ccc(C(=O)NCCCC3CCCC3)cc2)CC1,active: 13 µM,
COc1ccc(-c2csc(NC(CO)c3nc4ccccc4n3CCCO)n2)cc1 (stereo not drawn),"inconclusive [inhibitor, single point]",
CCN(CC)S(=O)(=O)c1cccc(C(=O)N2CCCc3ccccc32)c1,"inconclusive [inhibitor, single point]",
Cc1ccc(NC(=S)NNC(=O)c2ccccc2O)c(C)c1,active: 23.1 µM,
COC(=O)c1ccc(/C=N/OCC(=O)Nc2cc(F)ccc2F)cc1,,inactive: 11.8%
CC(C)CN1CCC2(CC1)CCN(S(=O)(=O)c1ccccc1)CC2,"inconclusive [inhibitor, full curve, poor fit]",
Cc1cc(N2CCOCC2)ccc1/C=C1\SC(=O)N(C(C)C)C1=O,"inconclusive [inhibitor, single point]",
COc1cccc(Cn2c(=O)n(Cc3ccccc3)c(=O)c3c2c2cc(OC)ccc2n3C)c1,,inactive: 0.489%
CCCN1CCCc2cc(CN(CCCN3CCOCC3)C(=O)Nc3ccc(Cl)c(Cl)c3)ccc21,active: 25.9 µM,
Cc1cccc2[nH]c3c(N4CC=C(c5ccc(F)cc5)CC4)ncnc3c12,active: 13 µM,
Cc1cc(C)nc(Nc2nc(C(N)Cc3ccccc3)cs2)n1 (stereo not drawn),active: 5.8 µM,
Cc1cccc(N(C)S(=O)(=O)c2ccc3c(c2)NC(=O)CC(=O)N3)c1,inactive,
COc1ccc(CNC(=O)C(=O)NCC(c2cccnc2)N2CCN(c3ccccc3)CC2)cc1 (stereo not drawn),active: 16.4 µM,
COC(=O)c1ccc(-n2c(C)cc(C(=O)COC(=O)CC3Sc4ccccc4NC3=O)c2C)cc1 (stereo not drawn),"inconclusive [inhibitor, single point]",
CCCN1C(=O)/C(=C\C=C2/Sc3ccccc3N2CCO)SC1=S,"inconclusive [inhibitor, single point]",
CCN(C(=O)COC(=O)c1cc2ccccc2cc1OC)c1c(N)n(Cc2ccccc2)c(=O)[nH]c1=O,"inconclusive [inhibitor, single point]",
CSCCC(NC(=O)c1ccc([N+](=O)[O-])cc1Cl)C(=O)OCC(=O)NC1CCCC(C)C1C (stereo not drawn),"inconclusive [inhibitor, partial curve]",
Cc1ccc(-c2cc3nc(NCCc4ccncc4)n(C)c(=O)c3s2)cc1,active: 23.1 µM,
CCOC(=O)C1(CCCc2ccccc2)CCN(C(=O)c2ccoc2)CC1,,inactive: -23.8%
COc1ccc(CCNC(=O)C2CCN(S(=O)(=O)c3ccc(Cl)cc3)CC2)cc1OC,"inconclusive [inhibitor, partial curve, poor fit]",
Cc1ccc(NC(=O)CCC(=O)N/N=C/c2ccc([N+](=O)[O-])o2)cc1C,"inconclusive [inhibitor, partial curve]",
CCc1cccc(C)c1NC(=O)CNCc1ccccc1,,inactive: 0.0137%

# From PubChem BioAssay AID686979 (National Center for Advancing Translational Sciences (NCATS), 2013)
